Measured values from US11618753B2 (priority 2018, dated 2023).

These molecules were tested on MLKL phosphorylation, HT29-L23 human colorectal adenocarcinoma cells (assay: cells). Details: read-out: pMLKL HCS Cell Assay (IC50, uM).
`COc1ncc(-c2cc(C(F)(F)F)c3c(N)ncnn23)cc1C(=O)NC1CN(Cc2ccc(C#N)cc2)CC1F` (racemic) [Example 241, 5-[4-amino-5-(trifluoromethyl)pyrrolo[2,1-f][1,2,4]triazin-7-yl]-N-{1-[(4-cyanophenyl)methyl]-4-fluoropyrrolidin-3-yl}-2-methoxypyridine-3-carboxamide] was tested, and the IC50 was 0.033 µM.
In the case of `Nc1ncnn2c(-c3cc(C(=O)N[C@@H]4CN(C(=O)C5CCC(F)(F)CC5)C[C@@H]4F)ccc3F)cc(C(F)(F)F)c12` [Example 425, 3-[4-amino-5-(trifluoromethyl)pyrrolo[2,1-f][1,2,4]triazin-7-yl]-N-[(3R,4S)-1-(4,4-difluorocyclohexane-carbonyl)-4-fluoropyrrolidin-3-yl]-4-fluorobenzamide], the IC50 is reported as 0.051 µM.
`COc1ncc(-c2cc(CN3CCC(F)(F)CC3)c3c(N)ncnn23)cc1C(=O)N[C@@H]1CN(C(=O)OCC(C)(C)C(F)(F)F)C[C@@H]1F` [Example 1508, 3,3,3-trifluoro-2,2-dimethylpropyl (3R,4S)-3-(5-{4-amino-5-[(4,4-difluoropiperidin-1-yl)methyl]pyrrolo[2,1-f][1,2,4]triazin-7-yl}-2-methoxypyridine-3-amido)-4-fluoropyrrolidine-1-carboxylate] gave an IC50 of 0.008 µM.
`COc1ncc(-c2c(-c3nnn[nH]3)cc3c(N)ncnn23)cc1C(=O)N[C@@H]1CN(C(=O)[C@@](C)(O)C(F)(F)F)C[C@@H]1F` [Example 543, 5-(4-amino-6-(1H-tetrazol-5-yl)pyrrolo[2,1-f][1,2,4]triazin-7-yl)-N-((3R,4S)-4-fluoro-1-((R)-3,3,3-trifluoro-2-hydroxy-2-methylpropanoyl)pyrrolidin-3-yl)-2-methoxynicotinamide] showed an IC50 of 6.25 µM.
`COc1ncc(-c2c(C#N)cc3c(N)ncnn23)cc1C(=O)N[C@@H]1CN(C(=O)C2CC(O)(C(F)(F)F)C2)C[C@@H]1F` (stereo partly drawn) [Example 559, 5-(4-amino-6-cyanopyrrolo[2,1-f][1,2,4]triazin-7-yl)-N-((3R,4S)-4-fluoro-1-(3-hydroxy-3-(trifluoromethyl)cyclobutane-1-carbonyl)pyrrolidin-3-yl)-2-methoxynicotinamide] was tested, and the IC50 was 4.45 µM.
Work on `Nc1ncnn2c(-c3ccc(F)c(C(=O)N[C@@H]4CN(C(=O)C5CC5(F)F)C[C@@H]4F)c3)cc(C(F)(F)F)c12` (stereo partly drawn) [Example 259, 5-[4-amino-5-(trifluoromethyl)pyrrolo[2,1-f][1,2,4]triazin-7-yl]-N-[(3R,4S)-1-(2,2-difluorocyclopropanecarbonyl)-4-fluoropyrrolidin-3-yl]-2-fluorobenzamide] yielded an IC50 of 0.02 µM.
`Cc1ncc(-c2cc(C(F)(F)F)c3c(N)ncnn23)cc1C(=O)NCCC(O)(c1ccccc1)C(F)(F)F` (stereo not shown) [Example 13, 5-[4-amino-5-(trifluoromethyl)pyrrolo[2,1-f][1,2,4]triazin-7-yl]-2-methyl-N-(4,4,4-trifluoro-3-hydroxy-3-phenylbutyl)pyridine-3-carboxamide] gave an IC50 of 0.03 µM.
`Nc1ncnn2c(-c3cc(C(=O)N[C@@H]4CN(C(=O)C5CC5(F)F)C[C@@H]4F)c(Cl)cc3F)cc(C(F)(F)F)c12` (stereo partly drawn) [Example 408, 5-[4-amino-5-(trifluoromethyl)pyrrolo[2,1-f][1,2,4]triazin-7-yl]-2-chloro-N-[(3R,4S)-1-(2,2-difluorocyclopropanecarbonyl)-4-fluoropyrrolidin-3-yl]-4-fluorobenzamide] showed an IC50 of 0.012 µM.
In the case of `C[C@@](O)(C(=O)N1C[C@H](F)[C@H](NC(=O)c2cc(-c3cc(C(F)(F)F)c4c(N)ncnn34)ccc2OC(F)(F)F)C1)C(F)(F)F` [Example 1061, 5-[4-amino-5-(trifluoromethyl)pyrrolo[2,1-f][1,2,4]triazin-7-yl]-N-[(3R,4S)-4-fluoro-1-[(2R)-3,3,3-trifluoro-2-hydroxy-2-methylpropanoyl]pyrrolidin-3-yl]-2-(trifluoromethoxy)benzamide], the IC50 is reported as 0.0071 µM.
Work on `COc1ncc(-c2cc(CN3CCC(F)(F)CC3)c3c(N)ncnn23)cc1C(=O)N[C@@H]1CN(C(=O)c2ccc(F)cc2Cl)C[C@@H]1F` [Example 1253, 5-{4-amino-5-[(4,4-difluoropiperidin-1-yl)methyl]pyrrolo[2,1-f][1,2,4]triazin-7-yl}-N-[(3R,4S)-1-(2-chloro-4-fluorobenzoyl)-4-fluoropyrrolidin-3-yl]-2-methoxypyridine-3-carboxamide] yielded an IC50 of 0.0015 µM.
Molecule `COc1ncc(-c2cc(C(F)(F)F)c3c(N)ncnn23)cc1C(=O)N1CCC(Cc2ccccc2)C1` (stereo not shown) [Example 124, 7-[5-(3-benzylpyrrolidine-1-carbonyl)-6-methoxypyridin-3-yl]-5-(trifluoromethyl)pyrrolo[2,1-f][1,2,4]triazin-4-amine] has an IC50 of 0.388 µM.
`COc1c(F)cc(-c2cc(C(F)(F)F)c3c(N)ncnn23)cc1C(=O)N[C@@H]1CN(C(=O)C2CCC(F)CC2)C[C@@H]1F` (stereo partly drawn) [Example 695, 5-[4-amino-5-(trifluoromethyl)pyrrolo[2,1-f][1,2,4]triazin-7-yl]-3-fluoro-N-[(3R,4S)-4-fluoro-1-(4-fluorocyclohexanecarbonyl)pyrrolidin-3-yl]-2-methoxybenzamide] was tested, and the IC50 was 0.086 µM.
Molecule `Nc1ncnn2c(-c3cc(C(=O)N[C@@H]4CN(C(=O)c5ncccc5F)C[C@@H]4F)c(Cl)cc3F)cc(C(F)(F)F)c12` [Example 404, 5-[4-amino-5-(trifluoromethyl)pyrrolo[2,1-f][1,2,4]triazin-7-yl]-2-chloro-4-fluoro-N-[(3R,4S)-4-fluoro-1-(3-fluoropyridine-2-carbonyl)pyrrolidin-3-yl] benzamide] has an IC50 of 0.063 µM.
`COc1cc(C(=O)N[C@@H]2CN(C(=O)CC(O)(C(F)(F)F)C(F)(F)F)C[C@@H]2F)cc(-c2cc(C(F)(F)F)c3c(N)ncnn23)c1` [Example 577, 3-[4-amino-5-(trifluoromethyl)pyrrolo[2,1-f][1,2,4]triazin-7-yl]-N-[(3R,4S)-4-fluoro-1-[4,4,4-trifluoro-3-hydroxy-3-(trifluoromethyl)butanoyl]pyrrolidin-3-yl]-5-methoxybenzamide] showed an IC50 of 0.0027 µM.
For `COc1ncc(-c2cc(C(F)(F)F)c3c(N)ncnn23)cc1C(=O)N[C@@H]1CN(C(=O)C2(C)COC(C)(C)OC2)C[C@@H]1F` [Example 1681, 5-(4-amino-5-(trifluoromethyl)pyrrolo[2,1-f][1,2,4]triazin-7-yl)-N-((3R,4S)-4-fluoro-1-(2,2,5-trimethyl-1,3-dioxane-5-carbonyl)pyrrolidin-3-yl)-2-methoxynicotinamide], the IC50 was 0.121 µM.
Molecule `CCc1ccc(-c2cc(C(F)(F)F)c3c(N)ncnn23)cc1C(=O)N[C@@H]1CN(C(=O)C(C)(C)O)C[C@@H]1F` [Example 980, 5-[4-amino-5-(trifluoromethyl)pyrrolo[2,1-f][1,2,4]triazin-7-yl]-2-ethyl-N-[(3R,4S)-4-fluoro-1-(2-hydroxy-2-methylpropanoyl)pyrrolidin-3-yl]benzamide] has an IC50 of 0.033 µM.
With `Nc1ncnn2c(-c3cc(F)c(CF)c(C(=O)N[C@@H]4CN(C(=O)CC(F)(F)F)C[C@@H]4F)c3)cc(C(F)(F)F)c12` [Example 624, 5-[4-amino-5-(trifluoromethyl)pyrrolo[2,1-f][1,2,4]triazin-7-yl]-3-fluoro-N-[(3R,4S)-4-fluoro-1-(3,3,3-trifluoropropanoyl)pyrrolidin-3-yl]-2-(fluoromethyl)benzamide] the IC50 was 0.01 µM.
`COc1ncc(-c2cc(C(F)(F)F)c3c(N)ncnn23)cc1C(=O)N[C@@H]1CN(CC2CCCCC2)C[C@@H]1F` (racemic) [Example 40, cis-racemic-5-[4-amino-5-(trifluoromethyl)pyrrolo[2,1-f][1,2,4]triazin-7-yl]-N-[1-(cyclohexylmethyl)-4-fluoropyrrolidin-3-yl]-2-methoxypyridine-3-carboxamide] was tested, and the IC50 was 0.082 µM.
`Cc1ccc(-c2cc(C(F)(F)F)c3c(N)ncnn23)cc1C(=O)N[C@@H]1CN(C(=O)c2cccc(F)c2Cl)C[C@@H]1F` [Example 1034, 5-[4-amino-5-(trifluoromethyl)pyrrolo[2,1-f][1,2,4]triazin-7-yl]-N-[(3R,4S)-1-(2-chloro-3-fluorobenzoyl)-4-fluoropyrrolidin-3-yl]-2-methylbenzamide] gave an IC50 of 0.0011 µM.
In the case of `COc1ncc(-c2cc(C(F)(F)F)c3c(N)ncnn23)cc1C(=O)NCC(O)C(O)c1ccccc1` (stereo not shown) [Example 1768, 5-(4-amino-5-(trifluoromethyl)pyrrolo[2,1-f][1,2,4]triazin-7-yl)-N-(2,3-dihydroxy-3-phenylpropyl)-2-methoxynicotinamide], the IC50 is reported as 0.034 µM.
For `COc1c(F)cc(-c2cc(C(F)(F)F)c3c(N)ncnn23)cc1C(=O)N[C@@H]1CN(C(=O)C2CC(F)(F)C2)C[C@@H]1F` [Example 684, 5-[4-amino-5-(trifluoromethyl)pyrrolo[2,1-f][1,2,4]triazin-7-yl]-N-[(3R,4S)-1-(3,3-difluorocyclobutanecarbonyl)-4-fluoropyrrolidin-3-yl]-3-fluoro-2-methoxybenzamide], the IC50 was 0.044 µM.
In the case of `Cc1ccc(-c2cc(C(F)(F)F)c3c(N)ncnn23)cc1C(=O)N[C@@H]1CN(C(=O)c2ccc(F)c(F)c2)C[C@@H]1F` [Example 1008, 5-[4-amino-5-(trifluoromethyl)pyrrolo[2,1-f][1,2,4]triazin-7-yl]-N-[(3R,4S)-1-(3,4-difluorobenzoyl)-4-fluoropyrrolidin-3-yl]-2-methylbenzamide], the IC50 is reported as 0.0057 µM.
`COc1ncc(-c2cc(C(F)(F)F)c3c(N)ncnn23)cc1C(=O)N[C@@H]1CN(C(C)c2nc(Br)sc2Br)C[C@@H]1F` (stereo partly drawn) [Example 1398, 5-[4-amino-5-(trifluoromethyl)-pyrrolo[2,1-f][1,2,4]triazin-7-yl]-N-[(3R,4S)-1-[1-(2,5-dibromo-1,3-thiazol-4-yl)-ethyl]-4-fluoropyrrolidin-3-yl]-2-methoxypyridine-3-carboxamide] was tested, and the IC50 was 0.028 µM.
In the case of `Nc1ncnn2c(-c3cccc(C(=O)N[C@H]4CCN(C(=O)c5ccccc5)C4)c3)cc(C(F)(F)F)c12` [Example 79, 3-[4-amino-5-(trifluoromethyl)pyrrolo[2,1-f][1,2,4]triazin-7-yl]-N-[(3S)-1-benzoylpyrrolidin-3-yl]benzamide], the IC50 is reported as 0.139 µM.
`Nc1ncnn2c(-c3cc(F)c(Cl)c(C(=O)N[C@@H]4CN(C(=O)C5CC(F)(F)C5)C[C@@H]4F)c3)cc(C(F)(F)F)c12` [Example 635, 5-[4-amino-5-(trifluoromethyl)pyrrolo[2,1-f][1,2,4]triazin-7-yl]-2-chloro-N-[(3R,4S)-1-(3,3-difluorocyclobutanecarbonyl)-4-fluoropyrrolidin-3-yl]-3-fluorobenzamide] was tested, and the IC50 was 0.0073 µM.
